Test results published in article PMC12136788.
This is one part of the list.

B1: ENSG00000138759:stop:overlap|stop_codon|ENSG00000138759|stop_codon|NA|stop_codon (ssRNA)
RNA: GGGAGUUCUACAGUCCGACGAUCAAGUUGGAAAGGUUGAGCCCUUGACCACAAUAUUUCACACCAUUAGAGAGCUUUCUUUAUAGGGACUCAAAAGCAAAGAAGAUUGGAUUUGACCUUCAAAAUUGAAGGUCGUUCUUAAAACAACAGAGGAUUGAGCAUCA
B2: chr15:75505753:75505856:-|CDS|ENSG00000169410|unk|FALSE|unique (ssRNA)
RNA: GGGAGUUCUACAGUCCGACGAUCGGUGAACGGCCACCCAGAUCCCUUCGAUGAGAUCAUCCUGUUCUCCCUCCCUCCUGCCUUAGACUGGGACUCAGUACAUGUUCCAGGUCCCCAUGCUAUGACCAUCCAAGAGUUGGUGGACAACAGAGGAUUGAGCAUCA
B3: chr3:73066602:73066703:+|3pUTR|ENSG00000163605|unk|total|mutant (ssRNA)
RNA: GGGAGUUCUACAGUCCGACGAUCACUAUUUUGCCGAAUGAAUGUUUAUGAAGCUGAUAUGAGACCAUCUCAGAAGAACCAAGCCGGUUCCUUGACCUUUUGCUUGCUUUUCUGAACAUUGUGAAUAUUACACAUGUCUUUCUACAACAGAGGAUUGAGCAUCA
B4: chr10:103289619:103289731:+|3pUTR|ENSG00000148798|unk|total|mutant (ssRNA)
RNA: GGGAGUUCUACAGUCCGACGAUCAUGAGUGGAAAAAGCCAAGGUGUCAUUUAUGUGUCAGUUCAUUUGUGGUGAUACCGAAUCCGCUUUUUCAUCCCCUUACCCUCCGAAUCCACGUAUUCCCCUUCCCACCCGCCCCGGUCACAACAGAGGAUUGAGCAUCA
B5: ENSG00000106305:stop:overlap|stop_codon|ENSG00000106305|stop_codon|NA|stop_codon (ssRNA)
RNA: GGGAGUUCUACAGUCCGACGAUCACGUGCACGGCAGGAGCUACGGCCCAGCGCCGGGCGCUGGCCACGUGCAGCCUCUCCAGUAGCUGGGAUUACAGGUGCCCCCCACCAAGCCCAGCUAAUUUUUGUGUUUCAGUAGAAAUGCAACAGAGGAUUGAGCAUCA
B6: chr8:144876950:144881514:-|three_prime_utr|ENSG00000196150|control|control|control (ssRNA)
RNA: GGGAGUUCUACAGUCCGACGAUCGAAACUGCAUGUGGAACCACAAGCAGCCUUCAGCCCAAGAGAAGUCUCUGUUAACUCUAUAGGAAGCUUUUCUUUGGCGAUUCAGUGUCACAAAAUAACUCCAGAAAGAAGCACUUAGCGCAACAGAGGAUUGAGCAUCA
B7: ENSG00000105438:stop:overlap|stop_codon|ENSG00000105438|stop_codon|NA|stop_codon (ssRNA)
RNA: GGGAGUUCUACAGUCCGACGAUCAUUUCUUCUACCUCUAUAUCACCAAAGUCCUAAAGGGGAAGAAGUUGAGUUUGCCGGCAUAGCCCCGGUCCUCUCCAUCUCUCUCCUCGGCAGCAGCGGGAGGCAGAGGAAGGCGGCAGACAACAGAGGAUUGAGCAUCA
B8: ENSG00000136451:be:win_651|CDS|ENSG00000136451|bound_else_gene|NA|bound_elsewhere_windowed (ssRNA)
RNA: GGGAGUUCUACAGUCCGACGAUCGACUUACCAUGUGAGGUCUCAUGAAGGAGGCAUCACCAAACCCUAUACUUGCAGUGUUUGUGGGAAAGGCUUCUCAAGGCCUGACCACUUAAGCUGUCAUGUAAAACAUGUCCAUUCAACCAACAGAGGAUUGAGCAUCA
B9: chr20:45898604:45898705:+|3pUTR|ENSG00000064601|unk|total|mutant (ssRNA)
RNA: GGGAGUUCUACAGUCCGACGAUCAGAGCCCUGUACAUCCCAGACUGGGCCCAGGGUCUCCCACCGACAGCCUGGGGGCAAGUCCGCACUUUAUUCCCGCAGCAGUUCCUGAAUGGGGUGGCCUGGCCCCUUCUCUGCUUAAAGCAACAGAGGAUUGAGCAUCA
B10: chr1:162599429:162599460:+|3pUTR|ENSG00000117143|msi1_unk|total|mutant (ssRNA)
RNA: GGGAGUUCUACAGUCCGACGAUCGGUAUUUGAACCAGAUACCAAGUUUUGUUUGCCACGACCGGAACCGCUUUUAUUUUUGACCGACCAACUGUGAACCUACAAGACGUCUUGGACAACUGAAGUUUAAAUAUCCACAGGGUUCAACAGAGGAUUGAGCAUCA
B11: chr12:55956948:55957671:-|CDS|ENSG00000185664|control|control|control (ssRNA)
RNA: GGGAGUUCUACAGUCCGACGAUCGUGCUUUCUGGAACCACAGCUGCACAGGUAACAACUACAGAGUGGGUGGAGACCACAGCUAGAGAGCUACCUAUCCCUGAGCCUGAAGGUCCAGAUGCCAGCUCAAUCAUGUCUACGGAACAACAGAGGAUUGAGCAUCA
B12: ENSG00000165916:stop:overlap|stop_codon|ENSG00000165916|stop_codon|NA|stop_codon (ssRNA)
RNA: GGGAGUUCUACAGUCCGACGAUCACAUGGAAGGCAUCCUGGAGGUGCAGGCCAAGAAGAAAGCCAACCUACAAUACUACGCCUAGGGCACACAGGCCAGCCCCAGUCUCACGGCUGAAGUGCGCAAUAAAAGAUGGUUUAGGGCAACAGAGGAUUGAGCAUCA
B13: ENSG00000070961:be:win_2851|CDS|ENSG00000070961|bound_else_gene|NA|bound_elsewhere_windowed (ssRNA)
RNA: GGGAGUUCUACAGUCCGACGAUCGAAAAGUUUUUUGACAUUGAUAGUGGAAGAAAUGCUCCUUUGCAUGCUCCUCCUUCAGAACAUUAUACUAUUGUUUUUAAUACCUUUGUGCUGAUGCAACUUUUCAACGAAAUAAAUGCCCAACAGAGGAUUGAGCAUCA
B14: ENSG00000107863:be:win_2601|CDS|ENSG00000107863|bound_else_gene|NA|bound_elsewhere_windowed (ssRNA)
RNA: GGGAGUUCUACAGUCCGACGAUCCCUGGAUGCUCAGCCCAACUCAAAGACAGAAAGAUCAAAAUCAUAUGAUGAGGGUCUGGAUGAUUACAGAGAAGAUGCAAAAUUGUCCUUUAAGCACGUAUCUAGUCUGAAGGGAAUCAACAACAGAGGAUUGAGCAUCA

Each binder was assayed against MSI1 full-length (mouse, UniProt Q61474 1-362) (assay: nsRBNS (natural sequence RNA bind-n-seq); RBNS binding buffer (assumed for nsRBNS): 25 mM Tris pH 7.5, 150 mM KCl, 3 mM MgCl2, 0.01% Triton X-100, 500 ug/ml BSA, 20 U/ml SUPERase-In, 4 C; UNK is unkempt and MSI1 is Musashi-1; names of the RNAs are library labels; protein concentration not given here; high values mean tight binding).
UniProt Q61474, sequence (Q61474 whole entry): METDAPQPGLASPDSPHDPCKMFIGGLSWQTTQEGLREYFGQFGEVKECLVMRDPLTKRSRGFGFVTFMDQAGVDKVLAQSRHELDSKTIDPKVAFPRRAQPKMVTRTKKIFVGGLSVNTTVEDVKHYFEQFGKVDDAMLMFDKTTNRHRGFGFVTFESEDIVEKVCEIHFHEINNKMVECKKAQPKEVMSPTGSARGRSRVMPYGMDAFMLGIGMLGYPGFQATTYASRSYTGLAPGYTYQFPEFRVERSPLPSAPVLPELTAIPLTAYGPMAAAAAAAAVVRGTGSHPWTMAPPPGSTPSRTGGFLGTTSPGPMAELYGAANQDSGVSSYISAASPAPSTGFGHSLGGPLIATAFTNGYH

Binder	binding signal [enrichment R]
B1	0.245
B2	0.726
B3	0.221
B4	0.524
B5	0.334
B6	0.539
B7	0.841
B8	0.26
B9	0.516
B10	0.254
B11	0.483
B12	4.13
B13	0.334
B14	0.45
